# Some of the results follow.
# Tests used:
# Experiment in all cases: glycan array binding signal (z-score within array); higher = stronger binding
# Conditions in all cases: glycan notation: IUPAC condensed, linker removed
# [1] = target: GalNAc(b1-4)GlcNAc(b1-2)Man
# Outline: (§1)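 Glycan array data were curated from 3228 arrays in the Consortium for Functional Glycomics database and kept only where the protein sequence was available. Glycan names were converted to IUPAC-condensed notation, and columns mapping to the same glycan were averaged. The binding signal is a within-array Z-score, averaged across arrays of the same protein sequence at different concentrations or buffers and across linkers. Negative Z-scores can be read as non-binding.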
# [2] = target: GalNAc(b1-4)GlcNAc(b1-2)Man(a1-3)[GalNAc(b1-4)GlcNAc(b1-2)Man(a1-6)]Man(b1-4)GlcNAc(b1-4)GlcNAc
# Outline: as §1
# [3] = target: GalNAc(b1-4)GlcNAc(b1-3)GalNAc(b1-4)GlcNAc
# Outline: as §1
# GalNAc(b1-4)GlcNAc6S = target: GalNAc(b1-4)GlcNAc6S
# Outline: as §1
# GalNAc(b1-6)GalNAc = target: GalNAc(b1-6)GalNAc
# Outline: as §1
# GalNAc3S(b1-4)GlcNAc = target: GalNAc3S(b1-4)GlcNAc
# Outline: as §1
# GalNAc3S(b1-4)GlcNAc3S = target: GalNAc3S(b1-4)GlcNAc3S
# Outline: as §1
# [4] = target: GalNAc3S(b1-4)[Fuc(a1-3)]GlcNAc
# Outline: as §1
# GalNAc4S6S(b1-4)GlcNAc = target: GalNAc4S6S(b1-4)GlcNAc
# Outline: as §1
# GalNAc6S(b1-4)GlcNAc = target: GalNAc6S(b1-4)GlcNAc
# Outline: as §1
# Glc(a1-4)Glc = target: Glc(a1-4)Glc
# Outline: as §1
# [5] = target: Glc(a1-4)Glc(a1-4)Glc(a1-4)Glc
# Outline: as §1
# Glc(a1-6)Glc(a1-6)Glc = target: Glc(a1-6)Glc(a1-6)Glc
# Outline: as §1
# [6] = target: Glc(a1-6)Glc(a1-6)Glc(a1-6)Glc
# Outline: as §1
# Glc(b1-4)Glc = target: Glc(b1-4)Glc
# Outline: as §1
# Glc(b1-6)Glc = target: Glc(b1-6)Glc
# Outline: as §1
# GlcA(b1-3)Gal = target: GlcA(b1-3)Gal
# Outline: as §1
# GlcA(b1-3)GlcNAc = target: GlcA(b1-3)GlcNAc
# Outline: as §1
# GlcA(b1-6)Gal = target: GlcA(b1-6)Gal
# Outline: as §1
# [7] = target: GlcA3S(b1-3)Gal(b1-4)GlcNAc(b1-2)Man
# Outline: as §1
# [8] = target: GlcA3S(b1-3)Gal(b1-4)GlcNAc(b1-3)Gal(b1-4)Glc
# Outline: as §1
# [9] = target: GlcNAc(a1-3)Gal(b1-4)GlcNAc
# Outline: as §1
# [10] = target: GlcNAc(a1-4)Gal(b1-3)GlcNAc
# Outline: as §1
# [11] = target: GlcNAc(a1-4)Gal(b1-4)GalNAc
# Outline: as §1
# [12] = target: GlcNAc(a1-4)Gal(b1-4)GlcNAc
# Outline: as §1
# [13] = target: GlcNAc(a1-4)Gal(b1-4)GlcNAc(b1-3)Gal(b1-4)Glc
# Outline: as §1
# [14] = target: GlcNAc(a1-4)Gal(b1-4)GlcNAc(b1-3)Gal(b1-4)GlcNAc
# Outline: as §1
# [15] = target: GlcNAc(a1-4)Gal(b1-4)GlcNAc(b1-3)Gal(b1-4)GlcNAc(b1-3)Gal(b1-4)GlcNAc
# Outline: as §1
# [16] = target: GlcNAc(a1-4)Gal(b1-4)GlcNAc(b1-3)Gal(b1-4)[Fuc(a1-3)]GlcNAc(b1-3)Gal(b1-4)[Fuc(a1-3)]GlcNAc
# Outline: as §1
# [17] = target: GlcNAc(a1-6)Gal(b1-4)GlcNAc
# Outline: as §1
# [18] = target: GlcNAc(b1-2)Gal(b1-3)GalNAc
# Outline: as §1
# [19] = target: GlcNAc(b1-2)Man(a1-3)[GlcNAc(b1-2)Man(a1-6)]Man(b1-4)GlcNAc(b1-4)GlcNAc
# Outline: as §1
# [20] = target: GlcNAc(b1-2)Man(a1-3)[GlcNAc(b1-2)Man(a1-6)]Man(b1-4)GlcNAc(b1-4)[Fuc(a1-6)]GlcNAc
# Outline: as §1
# [21] = target: GlcNAc(b1-2)Man(a1-3)[GlcNAc(b1-4)][GlcNAc(b1-2)Man(a1-6)]Man(b1-4)GlcNAc(b1-4)GlcNAc
# Outline: as §1
# [22] = target: GlcNAc(b1-2)Man(a1-3)[GlcNAc(b1-4)][GlcNAc(b1-2)Man(a1-6)]Man(b1-4)GlcNAc(b1-4)[Fuc(a1-6)]GlcNAc
# Outline: as §1
# [23] = target: GlcNAc(b1-2)[GlcNAc(b1-4)]Man(a1-3)[GlcNAc(b1-2)Man(a1-6)]Man(b1-4)GlcNAc(b1-4)GlcNAc
# Outline: as §1
# [24] = target: GlcNAc(b1-2)[GlcNAc(b1-4)]Man(a1-3)[GlcNAc(b1-4)][GlcNAc(b1-2)Man(a1-6)]Man(b1-4)GlcNAc(b1-4)GlcNAc
# Outline: as §1
binder,measurement,setting,value
PX9961V-pdi-562-26-562 (Parabacteroides distasonis) (protein) EIFSEITTDNYYQNSNNIYAALVNNYAKAFSTGWSDARYFLQEVTADQLMIPTRGKHGYNGGEYVRLHEHKWTVEENFVYNGWAAPFQGIALCNNTLSDFENLDFSTFKLTEETKNEYIAELRALRVWNYMFLIDFFRHVPIVTDIEEVKAQSTPLEVFNFMESELLAILPDLPKNRGVSRFDQAGVASILVRLYLNAEKWIGISKYDECEQMAQAILDGKYGEYSIDPDYRGPFRSGINGYRSKENIMEFAIKKNYFEASWLYNMWMHYQDRYSLDNDWQGWNGGNLAPSRDLYGNLYQDKLGMPFEKFPDGDIRKKAFRVISNDGDYEGFFLMGTQYKFDYEKGYGFTDEVITGTEEYNGKPLVYVDQVGRFSEGETGLAKGSHVIYGEENTGYRLIKFPWLPQSKDLFQMNSIPEIRLAEIYYSLAECKYRSGDKIGAARLLDVVRKRYYKAEDWSKFSYESNISKLTDDEFVDELGREFIGERHRRIDLIRWNRFSEGAWWDKTPDATNQDVFPIPYRALNANPLLKQTTAGF,glycan array binding signal (z-score),[1],-0.576
same,glycan array binding signal (z-score),[2],0.196
same,glycan array binding signal (z-score),[3],0.115
same,glycan array binding signal (z-score),GalNAc(b1-4)GlcNAc6S,1.09
same,glycan array binding signal (z-score),GalNAc(b1-6)GalNAc,-0.649
same,glycan array binding signal (z-score),GalNAc3S(b1-4)GlcNAc,-0.625
same,glycan array binding signal (z-score),GalNAc3S(b1-4)GlcNAc3S,-0.598
same,glycan array binding signal (z-score),[4],-0.475
same,glycan array binding signal (z-score),GalNAc4S6S(b1-4)GlcNAc,-0.477
same,glycan array binding signal (z-score),GalNAc6S(b1-4)GlcNAc,0.025
same,glycan array binding signal (z-score),Glc(a1-4)Glc,-0.413
same,glycan array binding signal (z-score),[5],-0.28
same,glycan array binding signal (z-score),Glc(a1-6)Glc(a1-6)Glc,-0.458
same,glycan array binding signal (z-score),[6],0.166
same,glycan array binding signal (z-score),Glc(b1-4)Glc,-0.298
same,glycan array binding signal (z-score),Glc(b1-6)Glc,-0.365
same,glycan array binding signal (z-score),GlcA(b1-3)Gal,-0.574
same,glycan array binding signal (z-score),GlcA(b1-3)GlcNAc,-0.168
same,glycan array binding signal (z-score),GlcA(b1-6)Gal,2.3
same,glycan array binding signal (z-score),[7],-0.629
same,glycan array binding signal (z-score),[8],0.386
same,glycan array binding signal (z-score),[9],-0.597
same,glycan array binding signal (z-score),[10],-0.325
same,glycan array binding signal (z-score),[11],-0.013
same,glycan array binding signal (z-score),[12],-0.336
same,glycan array binding signal (z-score),[13],-0.678
same,glycan array binding signal (z-score),[14],-0.638
same,glycan array binding signal (z-score),[15],-0.075
same,glycan array binding signal (z-score),[16],-0.027
same,glycan array binding signal (z-score),[17],0.024
same,glycan array binding signal (z-score),[18],-0.693
same,glycan array binding signal (z-score),[19],-0.524
same,glycan array binding signal (z-score),[20],-0.085
same,glycan array binding signal (z-score),[21],-0.461
same,glycan array binding signal (z-score),[22],-0.145
same,glycan array binding signal (z-score),[23],0.307
same,glycan array binding signal (z-score),[24],-0.324
